# Measurements published in paper PMC4336329 (PLoS ONE, 2015).
# The whole screen tested about 310,000 compounds, of which about 14,000 (4.5%) showed an effect of 50% or more. Effects have a minus sign here. The list shows a part of the results.
# Biological target: human ether-à-go-go-related gene (hERG) potassium channel (human, UniProt Q12809)
# Assay: primary screen, population patch clamp on CHO cells stably expressing hERG
# 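Further: peak tail current of the secondary pulse compared with the same well before compound.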
# Sequence of human ether-à-go-go-related gene (hERG) potassium channel (Q12809 whole entry, looked up): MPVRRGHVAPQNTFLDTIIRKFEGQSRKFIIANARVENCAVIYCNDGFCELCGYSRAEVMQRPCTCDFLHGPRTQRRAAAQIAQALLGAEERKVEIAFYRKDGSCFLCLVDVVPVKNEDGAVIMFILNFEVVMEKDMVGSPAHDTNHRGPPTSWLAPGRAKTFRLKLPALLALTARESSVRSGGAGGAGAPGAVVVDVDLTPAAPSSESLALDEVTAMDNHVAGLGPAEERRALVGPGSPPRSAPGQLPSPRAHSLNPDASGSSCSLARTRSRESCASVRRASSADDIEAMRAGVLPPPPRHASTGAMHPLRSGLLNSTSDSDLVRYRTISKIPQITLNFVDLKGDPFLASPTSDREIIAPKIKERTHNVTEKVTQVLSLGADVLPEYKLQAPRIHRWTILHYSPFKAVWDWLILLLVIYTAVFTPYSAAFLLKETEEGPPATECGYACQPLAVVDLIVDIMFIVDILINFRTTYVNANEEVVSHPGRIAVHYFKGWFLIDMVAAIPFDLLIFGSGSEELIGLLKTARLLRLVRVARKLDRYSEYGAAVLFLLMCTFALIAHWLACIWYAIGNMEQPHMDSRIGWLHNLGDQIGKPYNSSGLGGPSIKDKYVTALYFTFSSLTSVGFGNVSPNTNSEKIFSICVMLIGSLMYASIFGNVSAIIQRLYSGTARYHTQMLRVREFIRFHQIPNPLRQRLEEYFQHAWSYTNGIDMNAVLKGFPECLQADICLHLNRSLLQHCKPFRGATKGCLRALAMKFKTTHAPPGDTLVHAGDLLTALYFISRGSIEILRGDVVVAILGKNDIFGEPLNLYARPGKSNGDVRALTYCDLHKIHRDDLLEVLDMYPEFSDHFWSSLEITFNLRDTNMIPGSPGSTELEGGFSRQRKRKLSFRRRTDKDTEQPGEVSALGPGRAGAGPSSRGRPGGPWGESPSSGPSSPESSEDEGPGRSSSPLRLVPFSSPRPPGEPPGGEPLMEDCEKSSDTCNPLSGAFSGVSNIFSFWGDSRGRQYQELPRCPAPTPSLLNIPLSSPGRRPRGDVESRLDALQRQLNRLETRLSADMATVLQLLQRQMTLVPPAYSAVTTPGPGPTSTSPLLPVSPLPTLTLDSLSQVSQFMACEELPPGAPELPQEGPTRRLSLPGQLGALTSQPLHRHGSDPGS
row,SMILES,"hERG current change (%, negative = inhibition) at 10uM"
1,CC(=O)c1ccc(N2CCN(S(=O)(=O)c3ccc4c5c3CC(=O)N5CC(C)S4)CC2)cc1 (centres unmarked),12.5%
2,Cc1nc(C)c(-c2ccc(SCc3ccc([N+](=O)[O-])cc3)nn2)s1,-27.6%
3,CCc1ccc(N2CC(C(=O)OCC(=O)Nc3ccc(C(C)=O)cc3)CC2=O)cc1 (centres unmarked),-19.1%
4,CCOc1ccc2[nH]cc(C(=O)NCCc3ccccc3)c(=O)c2c1,11.5%
5,C/C(=N\Nc1ccccc1[N+](=O)[O-])c1ccc(N2CCOCC2)cc1,17%
6,Cc1ccc(NC(=O)CCCNC(=O)c2ccc(Cl)cc2)cc1S(=O)(=O)N1CCOCC1,-17.9%
7,O=C1c2cccnc2C(=O)N1c1cccc([N+](=O)[O-])c1,26.7%
8,C/C=C\C=C/C(=O)Nc1cccc(C2=NOC3(C2)C[C@@H](C(N)=O)N(C(=O)c2ccc(Cl)cc2)C3)c1 (some centres unmarked),3.22%
9,CN1CCN(c2ccccc2NC(=O)c2ccc(-c3ccc(Cl)cc3Cl)o2)CC1,-3.82%
10,Cc1cn(C)c(=O)n(C)c1=O,4.46%
11,Cc1ccc(S(=O)(=O)Nc2ccc(NC(=O)c3cccs3)cc2)cc1,12%
12,COC(=O)Cc1[nH]n(-c2ccccc2)c(=O)c1C(C)=Nc1ccccc1,-12.1%
13,Cc1c2cnn(CC(=O)NCCCN3CCCCC3)c(=O)c2c(C)n1Cc1ccccc1,9.96%
14,CCOC(=O)c1c(-c2ccc(C)o2)csc1NC(=S)NC(=O)c1cccs1,25.8%
15,O=C(NCCN1CCOCC1)c1cc(-c2ccc(Cl)s2)nc2ccccc12,-5.22%
16,Cc1ccccc1NS(=O)(=O)c1cc2c(cc1C)NC(=O)CO2,-22.5%
17,Cc1ccc(C(C)C)c(OCc2nc(-c3nonc3N)no2)c1,3.03%
18,CCOc1ccc(-c2noc(CCC(=O)NCCc3ccccc3)n2)cc1OC,9.68%
19,CN1C(N)=NC(=O)/C1=C/c1ccccc1F,5.16%
20,CCCC(c1nnnn1CCOC)N1CCN(Cc2ccccc2)CC1.Cl (centres unmarked),-12.1%
21,COCCNC(=O)/C(C#N)=C/c1c(N2CCN(c3ccc(OC)cc3)CC2)nc2c(C)cccn2c1=O,-25.7%
22,COc1ccccc1C(=O)COC(=O)CCN=C1NS(=O)(=O)c2ccccc21,-14.5%
23,O=C(COc1ccccc1Cl)NCCCNC(=O)c1ccncc1,12.5%

row,SMILES,"hERG current change (%, negative = inhibition) at 10uM"
1,COc1cc2c(cc1OC)CN(CC(=O)Nc1ccc(S(=O)(=O)N(C)C)cc1)CC2,5.24%
2,C/C(=N\NS(=O)(=O)c1ccc(C)cc1)c1cccs1,8.66%
3,O=C(OC(C(=O)NCc1ccc2c(c1)OCO2)c1ccncc1)c1ccc(Cl)nc1 (centres unmarked),-45.4%
4,Cc1cc(C)c2sc(N(CCN(C)C)C(=O)CCS(=O)(=O)c3ccccc3)nc2c1.Cl,23%
5,CSCCC(=O)N(C)CC1CCCN(CCc2cccc(C(F)(F)F)c2)C1 (centres unmarked),-74.6%
6,COc1ccc(C2c3c(oc4ccccc4c3=O)C(=O)N2c2ccccn2)cc1OC (centres unmarked),5.63%
7,NC(=O)c1c(NC(=O)Cc2cccs2)sc2c1CCC2,-18.2%
8,COc1ccc(-c2noc(CCC(=O)Nc3ccc4c(c3)OCCO4)n2)cc1,3.33%
9,Cc1cc(OC(=O)c2ccc(Cl)cc2Cl)nc(C)n1,6.82%
10,Cc1ccc(C(=O)CC(SCC(=O)O)c2ccc([N+](=O)[O-])cc2)cc1 (centres unmarked),2.56%
11,FC(F)(F)c1cnc2c(c1)[nH]c(=S)n2-c1ccc(Cl)cc1,27%
12,CCC(C(=O)NC1CCCCC1)n1c(SCc2cccc(F)c2)nc2ccncc21 (centres unmarked),-24.2%
13,CCOC(=O)/C(=C/C=C/c1ccccc1)NC(=O)c1ccccc1,-11.3%
14,S=C(c1c[nH]c2ccccc12)N1CCCC1,9.74%
15,O=C(NC1CCCCC1)C1CCN(S(=O)(=O)N2CCCCCC2)CC1,-1.16%
16,C=CCSc1ccc(S(=O)(=O)N2CCN(C)CC2)cn1,-12.5%
17,CC(=O)c1c(O)cc2n(c1=O)-c1ccc(Cl)cc1C2(C)C,-5%
18,Cc1cc2[nH]ncc2cc1NC(=S)NC(=O)c1ccccc1,10.9%
19,O=C(CCC(=O)N1CCN(c2ccc(F)cc2)CC1)c1ccc(F)cc1,-69.4%
20,CCn1ccnc1CNC(=O)CC1C(=O)NCCN1Cc1ccc(F)cc1Cl (centres unmarked),13.7%
21,Cc1ccc(OCc2ccc(C(=O)O)o2)c([N+](=O)[O-])c1,25.2%
22,CCCc1cc(=O)oc2cc(C)cc(OCC(=O)NCCCn3ccnc3)c12,-76.4%
23,COc1ccccc1N1CCN(Cc2ccsc2)CC1,-30.2%

row,SMILES,"hERG current change (%, negative = inhibition) at 10uM"
1,O=c1c2c([nH]c3ccccc13)CCCCCC2,-1.57%
2,COc1ccccc1-c1nnc(NC(=O)C(C)Sc2nncn2C)s1 (centres unmarked),-1.37%
3,CCOC(=O)N1CCC2(CC1)CC(=O)c1c(ccc3oc(C(=O)O)c(C)c13)O2,11.4%
4,Br.CCCc1nnc2n1N=C(c1ccc([N+](=O)[O-])cc1)CS2,-38.6%
5,Cc1ccc2c(c1)CCCN2C(=O)CSc1ccccc1,-21.2%
6,NC(=O)NC(c1ccccc1)c1ccccc1F (centres unmarked),9.53%
7,C=CCC1(O)C(=O)Nc2ccccc21 (centres unmarked),6.87%
8,COC(=O)CC1Oc2ccccc2N(Cc2ccccc2)C1=O (centres unmarked),-12.6%
9,CCOC(=O)C1CCCN(C(=S)Nc2cccc(Cl)c2C)C1 (centres unmarked),-3.13%
10,O=C(c1ccccn1)N1CCN(c2cccc(C(F)(F)F)c2)CC1,-11.5%
11,CC(=O)c1sc2nc(CSc3nncn3C)[nH]c(=O)c2c1C,5.77%
12,Cc1cc(C)c2nc(NC(=O)c3ccc4c(=O)n5c(nc4c3)CCCCC5)sc2c1,13.9%
13,Cc1ccc(Nc2c(-c3ccc(N4CCOCC4)cc3)nc3ncccn23)c(C)c1,-5.83%
14,CC1CC(NC(=O)CCn2c(=O)oc3ccccc32)CC(C)(C)C1 (centres unmarked),-27.4%
15,Cc1cc(C)c2sc(N)nc2c1,10.6%
16,Cc1ccc(/C=N/NC(=O)c2cccs2)s1,4.6%
17,CCNc1nc(NC(C)(C)C)nc(Oc2ccc(=O)n(-c3ccccc3)n2)n1,9.85%
18,O=C(CC12CC3CC(CC(C3)C1)C2)Nc1ccc2c(c1)COC2=O,-9.44%
19,Cc1cc(C(F)(F)F)c(C#N)c(=O)[nH]1,15.7%
20,Cc1cccc(NC(=S)NCCc2ccc3c(c2)OCCO3)c1C,-6.17%
21,CSCCC(=O)Nc1cc(S(=O)(=O)N2CCOCC2)ccc1N1CCN(C)CC1,15.3%
22,CCCCCCSc1cc(C)nc2ncnn12,-42.9%
23,Cc1nc2ccc(Br)cn2c(=O)c1Cl,-10.6%

row,SMILES,"hERG current change (%, negative = inhibition) at 10uM"
1,O=C(Oc1ccc(C(=S)N2CCOCC2)cc1)c1ccccc1[N+](=O)[O-],23.2%
2,COc1ccccc1CN1CCN(C(=O)COc2ccc3ccccc3c2)CC1,-36%
3,CC1Cc2cc(/C(O)=C3/C(=O)C(=O)N(CCCn4ccnc4)C3c3cccnc3)ccc2O1 (centres unmarked),8.82%
4,CCC(C)(C)C1CCC2(CC1)NC(CO)(CO)CO2 (centres unmarked),12.2%
5,O=C(COC(=O)/C=C/c1ccccc1)NCc1cccs1,-13.1%
6,O=C(Nc1sc2c(c1C(=O)O)CCC2)c1ccco1,7.29%
7,COc1ccc(C2=NN(C(=O)CSc3nc(=O)n4ccc(C)cc4n3)C(c3ccc(C)cc3)C2)cc1 (centres unmarked),5.1%
8,O=C(c1cccc(Cl)c1)N1CCCC(C(=O)N2CCCCCC2)C1 (centres unmarked),-22.3%
9,CCN(CC)S(=O)(=O)c1ccc(N2CCOCC2)c(NC(=O)CCC2CCCCC2)c1,-2.83%
10,COc1ccc(NS(=O)(=O)c2cccc(C(=O)NCCc3ccc(S(N)(=O)=O)cc3)c2)cc1,14.5%
11,CC[C@@]12C(=O)N(c3cccc(F)c3)C(=O)N1[C@H](c1ccc(Cl)cc1)[C@@H]1C(=O)N(C3CCCCC3)C(=O)[C@@H]12,-5.3%
12,Nc1cc(N)nc(SCCOc2ccccc2F)n1,8.75%
13,CCC1C(=O)Nc2nc(-c3ccccc3)c(-c3ccccc3)n2N=C1C (centres unmarked),-41.3%
14,Clc1cccc(OCCn2cncn2)c1Cl,11.5%
15,COc1ccc(NC(=O)c2cc3ccccc3cc2O)cc1,17.2%
16,Cc1nnnn1/C(=C\c1ccccc1)C(=O)OCC(=O)N(C)C1CCS(=O)(=O)C1 (centres unmarked),8.24%
17,COc1cccc(OC)c1C(=O)NC(=S)N1CCCCC1c1cccnc1 (centres unmarked),-13%
18,CCOC(=O)N1CCC(Nc2c(NCCN3CCN(c4cccc(Cl)c4)CC3)c(=O)c2=O)CC1,-0.879%
19,NC(=O)C(CCC(=O)c1ccc(Br)cc1)S(=O)(=O)c1ccccc1 (centres unmarked),-10.6%
20,Cc1ccc(NC(=O)CSc2nc3c(c(=O)[nH]2)CCC3)cc1C,-13.4%
